The campaign covered roughly 310,000 compounds. About 14,000 (4.5%) showed an effect of 50% or more. The effect is printed as a negative number. The list shows a part of the results.

Results on 57 compounds are retold here after article PMC4336329 (PLoS ONE, 2015).
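Further: peak tail current of the secondary pulse compared with the same well before compound.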

In this assay the target is human ether-à-go-go-related gene (hERG) potassium channel (human, UniProt Q12809). Kind of assay: primary screen, population patch clamp on CHO cells stably expressing hERG.
Sequence of human ether-à-go-go-related gene (hERG) potassium channel (Q12809 whole entry, looked up): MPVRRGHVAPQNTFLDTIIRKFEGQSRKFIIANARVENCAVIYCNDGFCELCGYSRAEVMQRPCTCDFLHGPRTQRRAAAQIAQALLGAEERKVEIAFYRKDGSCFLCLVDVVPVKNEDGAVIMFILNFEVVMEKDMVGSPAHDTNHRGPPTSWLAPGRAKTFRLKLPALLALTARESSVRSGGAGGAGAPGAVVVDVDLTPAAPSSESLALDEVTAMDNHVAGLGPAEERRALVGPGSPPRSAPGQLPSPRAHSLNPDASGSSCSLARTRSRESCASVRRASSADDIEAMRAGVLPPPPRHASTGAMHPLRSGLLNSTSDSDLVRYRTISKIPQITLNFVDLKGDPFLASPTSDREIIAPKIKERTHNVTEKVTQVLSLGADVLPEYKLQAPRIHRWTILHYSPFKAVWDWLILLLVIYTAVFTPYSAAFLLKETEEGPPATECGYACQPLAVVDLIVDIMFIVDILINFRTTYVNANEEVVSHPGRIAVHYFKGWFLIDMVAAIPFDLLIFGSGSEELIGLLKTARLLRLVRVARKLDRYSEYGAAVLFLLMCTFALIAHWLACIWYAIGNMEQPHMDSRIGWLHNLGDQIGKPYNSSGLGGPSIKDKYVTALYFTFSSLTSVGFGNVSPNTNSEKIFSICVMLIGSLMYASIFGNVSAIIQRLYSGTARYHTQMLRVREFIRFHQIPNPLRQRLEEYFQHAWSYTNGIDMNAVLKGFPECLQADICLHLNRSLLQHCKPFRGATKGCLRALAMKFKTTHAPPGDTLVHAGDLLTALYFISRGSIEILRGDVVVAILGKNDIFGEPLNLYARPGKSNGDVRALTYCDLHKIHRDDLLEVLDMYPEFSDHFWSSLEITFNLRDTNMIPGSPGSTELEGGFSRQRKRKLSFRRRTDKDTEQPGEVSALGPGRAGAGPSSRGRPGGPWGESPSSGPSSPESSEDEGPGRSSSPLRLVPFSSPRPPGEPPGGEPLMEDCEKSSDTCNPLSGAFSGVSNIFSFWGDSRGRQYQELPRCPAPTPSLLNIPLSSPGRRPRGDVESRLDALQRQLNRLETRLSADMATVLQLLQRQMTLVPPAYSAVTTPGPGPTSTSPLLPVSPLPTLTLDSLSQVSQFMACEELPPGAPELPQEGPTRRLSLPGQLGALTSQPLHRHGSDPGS
`CCC(=O)Nc1ccc(N2CCCCC2)c(C(=O)Nc2ccc(OC)cc2)c1`: the “hERG current change (%, negative = inhibition) at 10uM” value is on record as -3.8%.
Next, `CN(CC(=O)Nc1ccc(F)cc1)C(=O)CCc1nc2ccccc2c(=O)[nH]1`: 2.83%.
Next, `Cc1c(NCc2nc3ccccc3[nH]2)c(=O)n(-c2ccccc2)n1C.Cl`: -10.9%; `CS(=O)(=O)N1CCN(C2CCN(Cc3ccccc3)CC2)CC1`: -1.48%.
Next, `c1ccc(Oc2cnc3ccccc3n2)cc1`: -12.3%; `CCN(CC)c1nc(C(F)(F)F)nc2c1nnn2Cc1ccccc1`: 9.26%.
Take `O=C(NCc1ccc(F)cc1)c1ccc(CS(=O)(=O)Cc2ccc(F)cc2)o1`: the “hERG current change (%, negative = inhibition) at 10uM” value is given as -15.5%.
Next, `CN1CCC(N(C)S(=O)(=O)c2ccc(NC(=O)COc3ccc(F)cc3Cl)cc2)CC1`: 6.79%; `COc1ccc(C(=O)c2coc(-c3ccccc3C(=O)O)c2C(=O)O)cc1`: 14.2%.
For `O=c1ccc(S(=O)(=O)N2CCCC2)cn1Cc1ccc(F)cc1`, the “hERG current change (%, negative = inhibition) at 10uM” value is given as -13.3%.
The figure for `O=C(Nc1ccccc1[N+](=O)[O-])c1cc(S(=O)(=O)N2CCOCC2)cs1` is 3.39%; for `COc1ccc(N(CC(=O)O)S(=O)(=O)c2ccccc2[N+](=O)[O-])c(OC)c1` it is 7.07%; for `Cc1ccc(NC(=O)C(Cc2ccccc2)NC(=O)c2ccco2)cc1` (stereo not drawn) it is -3.13%.
The figure for `COc1ccc(OC)c(CN2CCC(Cc3ccccc3)CC2)c1.O=C(O)C(=O)O` is -69.4%; for `CCc1ccc(NC(=O)CC2C(=O)NCCN2C(=S)Nc2ccccc2)cc1` (stereo not drawn) it is -10.8%; for `CCC(CC)C(=O)NCc1ccccc1OC` it is 0.922%.
Next, `CCNc1cc(Nc2c(C)n(C)n(-c3ccccc3)c2=O)c([N+](=O)[O-])c2nonc12`: -3.92%; `Cc1ccc(NC(=O)COC(=O)c2cccc(N3C(=O)c4ccccc4C3=O)c2)cc1`: 22.3%; `CC(=O)c1cnc(N(C)C)s1`: 10%.
`O=C(Nc1ccc2nc3n(c(=O)c2c1)CCCCC3)C(=O)N1CCN(c2ccc(F)cc2)CC1`: the “hERG current change (%, negative = inhibition) at 10uM” value worked out at 6.57%.
Next, `CCCOc1ccc(N2C(=O)CC(NCCNc3ccc(S(=O)(=O)CC)cc3)C2=O)cc1` (stereo not drawn): -59.9%; `COc1ccc(CCNC(=O)COC(=O)c2ccc(Br)o2)cc1OC`: 5.06%; `O=C(COc1c(Br)cc(Br)c2cccnc12)N1CCCCC1`: -23.9%.
The figure for `OC1CCCN(C(=S)NCc2ccccc2)C1` (stereo not drawn) is 4.37%.
Next, `Cc1ccc(S(=O)(=O)Cc2ccc([N+](=O)[O-])cc2)cc1`: 2.66%; `Cc1[nH][nH]c(=O)c1C=NCc1cccs1`: 12.3%.
With `O=C(COC(=O)CSCc1ccccc1)NCc1ccccc1`, the “hERG current change (%, negative = inhibition) at 10uM” value turned out to be 8.99%.
The figure for `CCOC(=O)Cn1c(CN2CCN(C(=O)c3ccco3)CC2)nc2c1c(=O)n(C)c(=O)n2C` is -13.3%.
The figure for `Cc1cc(NC(=O)CSc2nc3ccccc3n2CC(=O)N2CCC(C)CC2)no1` is 1.55%; for `Cc1cccc(C)c1NC(=O)CSc1nnc(-c2ccncc2)n1Cc1ccco1` it is -29.2%.
The figure for `CC(C)c1ccc(NC(=S)N2CCN(Cc3ccccc3)CC2)cc1` is 8.64%; for `COc1ccc(/C=N/NC(=O)c2cccnc2)cc1COc1ccc([N+](=O)[O-])c(C)c1` it is -5.82%; for `COC(=O)Cn1c(C(O)c2ccccc2)nc2ccccc21` (stereo not drawn) it is 20.8%.
`CCCc1cc(=O)oc2c(C)c(OCC(=O)NCc3ccccn3)ccc12`: the “hERG current change (%, negative = inhibition) at 10uM” value is on record as -8.82%.
Next, `O=C(NC1CCCCCC1)C(=O)NC1CCCC1`: 20.8%.
In the case of `Nc1nnc(SCc2ccccc2F)s1`, the “hERG current change (%, negative = inhibition) at 10uM” value is recorded as -24.9%.
Next, `COc1ccccc1CNC(=O)c1cc(-c2ccccc2C)n(CC2CC(c3cccc([N+](=O)[O-])c3)=NO2)n1` (stereo not drawn): 16.4%; `O=C(CCC(=O)c1cccs1)Nc1ncccc1O`: 17.5%.
Next, `O=C(CCc1ccccc1)N/N=C/c1cccc([N+](=O)[O-])c1`: -12.6%.
For `COc1ccc(C(=O)CN2C(=O)c3ccccc3S2(=O)=O)cc1`, the “hERG current change (%, negative = inhibition) at 10uM” value amounted to 9.67%.
Next, `O=C1CSC(=S)N1Cc1cccnc1`: -2.25%; `Cc1cc(NC(=O)c2ccc(Br)c([N+](=O)[O-])c2)no1`: -6.04%.
With `Cc1cc([N+](=O)[O-])nn1CC(=O)N1CCOCC1`, the “hERG current change (%, negative = inhibition) at 10uM” value is listed as -9.3%.
Next, `CC(C)(C)c1nnc(N/N=C/c2ccc(O)cc2)n(N)c1=O`: -3.42%; `COc1ccc(C(=O)CCC(=O)NC2=NCCS2)cc1`: 12.3%.
Next, `O=C(O)CCCC(=O)N1CCN(c2ncccn2)CC1`: 22.8%; `CCn1c(C)c(C(=O)O)c2cc(OC)c3ccccc3c21`: 1.93%; `COc1c(-c2ccc(O)c(O)c2)oc2cc(O)cc(O)c2c1=O`: -4.09%.
Take `C=CCOc1cccc(C2C(C(=O)c3cc4ccccc4o3)=C(O)C(=O)N2c2cc(C)on2)c1` (stereo not drawn): the “hERG current change (%, negative = inhibition) at 10uM” value amounted to 18.5%.
The figure for `CCCOC(=O)C1=C(C)NC2=C(C(=O)CCC2)C1c1cc(OC)ccc1OC` (stereo not drawn) is -2.76%; for `O=C(CCNC(=O)c1ccc(Br)cc1)Nc1cccc(S(=O)(=O)N2CCCCCC2)c1` it is -34.1%; for `COc1ccc(F)cc1CN1CCN(C(=O)CCC(=O)Nc2nnc(C(C)C)s2)CC1` it is -1.63%.
Next, `CC1CCCCC12NC(=O)N(CC(=O)Nc1cccnc1Cl)C2=O` (stereo not drawn): 8.05%.
The figure for `COc1ccc(CNC(=S)NCc2ccc(F)cc2)cc1` is -23.5%; for `CN(CC(=O)Nc1ccc(N2CCOCC2)cc1)C(=O)c1cn(-c2ccccc2)nc1-c1ccccc1` it is 12.3%.
On to `Cc1cc(C(=O)Nc2ccccc2C(=O)O)c(C)o1`, for which the “hERG current change (%, negative = inhibition) at 10uM” value was 14.6%.
The figure for `CC(C)(C)C1CCc2c(sc3c2C(=O)NC(c2ccco2)N3)C1` (stereo not drawn) is 2.55%.
